# Laboratory results reported in publication PMC13083723 (Patterns, 2026).
# About 190 (3.5%) of roughly 5,400 compounds showed an effect of 50% or more. Some of the results follow. Non-standard residues stand in square brackets, D forms with d. Residues, ends and D or L forms follow the SMILES beside them. pGlu = O=C1CC[C@@H](C(=O)O)N1; Thz = O=C(O)[C@@H]1CSCN1
# Tested on: Vero-E6
# Experiment: primary screen, phospholipidosis by LipidTOX staining; higher = more effect of the substance
# Details: 10 µM
# Summary of the method: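 Single-concentration screen at 10 μM, with DMSO 0.1 v/v % and amiodarone 10 μM as controls. Read-out is LipidTOX Red phospholipid staining, which tolerates aldehyde fixation, in Vero-E6 cells.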
row,SMILES,result_ITMP [%]
1,C(=C\c1ccccc1)/CN1CCN(CCOC(c2ccccc2)c2ccccc2)CC1,7.08
2,C=C1C(=O)[C@@]23C(CC[C@@H]1[C@H]2O)[C@@]12CO[C@]3(O)[C@@H](O)[C@@H]1C(C)(C)CC[C@@H]2O (some centres unmarked),3.95
3,CO[C@H]1C[C@H](O[C@@H]2/C(C)=C/C[C@@H]3C[C@@H](C[C@]4(CC[C@H](C)[C@@H](C5CCCCC5)O4)O3)OC(=O)[C@@H]3C=C(C)/C(=N/O)[C@H]4OC/C(=C\C=C\[C@@H]2C)[C@]43O)O[C@@H](C)[C@@H]1O,-3.99
4,CN1CCN(Cc2ccc(-c3cnc4[nH]cc(-c5ccc6[nH]ccc6c5)c4c3)cc2)CC1,-0.11
5,O=C(Nc1ccc2c(O)cc(S(=O)(=O)[O-])cc2c1)Nc1ccc2c(O)cc(S(=O)(=O)[O-])cc2c1,-7.47
6,O=C(Nc1ccccc1)N[C@H]1C[C@H](C(=O)O)Nc2cc(Cl)cc(Cl)c21,-2.19
7,O=C1c2c(O)ccc(O)c2C(=O)c2c(NCCNCCO)ccc(NCCNCCO)c21,-15.3
8,CCOC(=O)c1ccc(NC2CCCCC2)c(N)c1,-2.75
9,CC(=O)O[C@H]1C[C@@H]2CC[C@@H]3[C@H](CC[C@@]4(C)[C@H]3C[C@H]([N+]3(C)CCCCC3)[C@@H]4OC(C)=O)[C@@]2(C)C[C@@H]1[N+]1(C)CCCCC1,-1.37
10,O=C(NC(Cc1cc(=O)[nH]c2ccccc12)C(=O)O)c1ccc(Cl)cc1 (centres unmarked),1.81
11,CC(C)c1cc(C(C)C)c(CC(=O)NS(=O)(=O)Oc2c(C(C)C)cccc2C(C)C)c(C(C)C)c1,-7
12,CC(C)(C)NC[C@H](O)COc1cccc2c1CCCC2=O,-3.94
13,COc1ccc(S(=O)(=O)N2CCCN(S(=O)(=O)c3ccc(OC)c(OC)c3)CC2)cc1OC,-6.24
14,O=C(NNc1nc2cc(F)ccc2n2cccc12)c1cnccn1,-1.48
15,C[N+](C)(C)CCOC(N)=O,-0.88
16,CC(C)c1cc(CNc2nc(Nc3cc(C4CC4)[nH]n3)cc(N3CCN(C)CC3)n2)on1,20
17,Cc1nn(C)c2c1C(c1cccc(Cl)c1)=NCCN2,-1.14
18,COC(=O)/C=C/C(=O)OC,-6.83
19,COc1ccc(-c2oc3cc(OC)ccc3c2C(=O)c2ccc(C#N)cc2)cc1,0.44
20,CCc1ccc(OCc2ccccc2C(=O)Nc2ccc3nc(C)cc(N)c3c2)cc1,-10.1
21,CN(C)CCc1c[nH]c2ccc(CS(=O)(=O)N3CCCC3)cc12,-4.05
22,Cn1nc(C(C)(C)C)cc1C(=O)N[C@@H](Cc1cccc(Cl)c1)C(=O)NCC#N,-8.49
23,CC1(COc2ccc(CC3SC(=O)NC3=O)cc2)CCCCC1 (centres unmarked),-1.61

row,SMILES,result_ITMP [%]
1,CN(c1ncccc1CNc1nc(Nc2ccc3c(c2)CC(=O)N3)ncc1C(F)(F)F)S(C)(=O)=O,41.6
2,CC(C)OC(=O)[C@H](C)N[P@@](=O)(OC[C@H]1O[C@@H](n2ccc(=O)[nH]c2=O)[C@](C)(F)[C@@H]1O)Oc1ccccc1,0.21
3,O=C(c1ccc(Cl)cc1)N(Cc1ccccc1)C1CCCCC1,-0.41
4,CCCCCCCCCC(=O)OCCN1CCN(CCCN2c3ccccc3Sc3ccc(C(F)(F)F)cc32)CC1,5.56
5,C=C1/C(=C\C=C2/CCC[C@]3(C)[C@@H]([C@H](C)/C=C/[C@H](C)C(C)(C)O)CC[C@@H]23)C[C@@H](O)C[C@@H]1O,-2.3
6,O=C1C=CC[C@@H]2[C@H]3CCCN4CCC[C@@H](CN12)[C@@H]34,-2.58
7,CC(CNC(=O)c1cccnc1)NC(=O)c1cccnc1 (centres unmarked),-5.4
8,CC(C)SC(=N)N,-3.42
9,O=C(O)C(=O)CBr,-2.27
10,O=C(Nc1ccccc1)N1CCN(c2nc(-c3ccccc3)ns2)CC1,3.42
11,C=C[C@H]1C[N@]2CC[C@H]1C[C@@H]2[C@H](O)c1ccnc2ccc(OC)cc12,3.64
12,COc1ccc(/C=C/C(=O)O)cc1,-5.6
13,CC(OC(=O)NCC1(CC(=O)O)CCCCC1)OC(=O)C(C)C (centres unmarked),-4.68
14,CC1=NN(c2ccc(C(=O)O)cc2)C(=O)/C1=C\c1ccc(-c2cc(C)c(C)cc2[N+](=O)[O-])o1,-1.81
15,CC1(C)OC2(C)C(O)CC1CC2O (centres unmarked),-3.78
16,C[C@@H](c1nc(-c2ccc(C#N)cc2)cs1)[C@](O)(Cn1cncn1)c1ccc(F)cc1F,1.42
17,CN1CCN2c3ccccc3Cc3ccccc3C2C1 (centres unmarked),15.9
18,CCCCCCCCOc1ccccc1C(=O)Nc1ccc(C(=O)OCC[N+](C)(CC)CC)cc1,-2.34
19,N[C@@H](Cc1ccc(O)c(O)c1)C(=O)O,-7.14
20,CCCCc1ncc(/C=C(\Cc2cccs2)C(=O)O)n1Cc1ccc(C(=O)O)cc1,4.58
21,CC(C)(C)C#Cc1cc(N(C(=O)[C@H]2CC[C@H](C)CC2)[C@H]2CC[C@@H](O)CC2)c(C(=O)O)s1,-2.12
22,c1coc(-c2nnc3sc(C4CCCCC4)nn23)c1,10.7
23,Cc1ccc(S(=O)(=O)NCc2ccccc2)cc1,-2.29

row,SMILES,result_ITMP [%]
1,O=c1[nH]c(=O)n(C2C[C@@H](O)[C@@H](CO)O2)cc1F (some centres unmarked),-11.2
2,CN1CCN(C(=O)O[C@H]2c3nccnc3C(=O)N2c2ccc(Cl)cn2)CC1,-5.6
3,COC(=O)C1=C(C)NC(C)=C(C(=O)OC(C)(C)CN(C)CCC(c2ccccc2)c2ccccc2)C1c1cccc([N+](=O)[O-])c1 (centres unmarked),33
4,CC(C)(O)C(=O)N1CCN(c2ccc(C(F)(F)F)c(C3=C(c4c[nH]c5ccccc45)C(=O)NC3=O)c2)CC1,11.3
5,O=C(Nc1cccnc1)c1cc(-c2ccnc(F)c2)ccc1OCc1ccccc1,-7.05
6,COc1cc2ncnc(Nc3cccc(Br)c3)c2cc1OC,-0.94
7,COc1ccc(Cl)cc1NC(=O)Nc1cc(C)nc2ccccc12,-7.16
8,CCn1c(=O)c(-c2ccc(Cl)cc2Cl)cc2cnc(Nc3ccc(N4CCNCC4)c(F)c3)nc21,-0.74
9,CN(C)CCC(c1ccc(Br)cc1)c1ccccn1 (centres unmarked),13.9
10,O=C([O-])CCCc1ccccc1,0.94
11,COc1cc2ncnc(Nc3cccc(Cl)c3F)c2cc1OC(=O)N1CCN(C)C[C@H]1C,10.7
12,O=c1[nH]c2ccccc2n1CCN1CCN(c2cccc(C(F)(F)F)c2)CC1,3.35
13,O=C1CC[C@@H](C(=O)N2CSC[C@H]2C(=O)O)N1 ([pGlu]-[Thz]-OH),-3.91
14,c1ccc(-c2ccc(C(c3ccccc3)n3ccnc3)cc2)cc1 (centres unmarked),-0.6
15,Oc1c(Cl)cc(Cl)c2cccnc12,-8.11
16,O=C([O-])C(O)[C@H](O)[C@H](O)[C@H](O)[C@H](O)CO (some centres unmarked),-2.15
17,CC(C)Oc1ccc(-c2nn([C@@H](C)c3oc4ccc(F)cc4c(=O)c3-c3cccc(F)c3)c3ncnc(N)c23)cc1F,0.92
18,O=C([O-])CCC(=O)OC[C@H](NC(=O)C(Cl)Cl)C(O)c1ccc([N+](=O)[O-])cc1 (some centres unmarked),1.81
19,COc1cc(Nc2c(C#N)cnc3cc(OCCCN4CCN(C)CC4)c(OC)cc23)c(Cl)cc1Cl,68
20,CC(C)(N)CC12CC3CC(CC(C3)C1)C2,35.1
21,CCCCc1oc2ccc(NS(C)(=O)=O)cc2c1C(=O)c1ccc(OCCCN(CCCC)CCCC)cc1,74.9
22,CCC1(c2ccccc2)C(=O)NCNC1=O,-1.24
23,N=C(Nc1ccccc1)c1cccs1,-5.89

row,SMILES,result_ITMP [%]
1,COc1cc(/C=C/C(=O)[O-])ccc1O,-1.05
2,Cc1cc2c(cc1C(F)(F)F)N(C(=O)Nc1ccc(Oc3cccnc3C)nc1)CC2,-1.15
3,CC1CCN(CC[C@H]2CCCN2S(=O)(=O)c2cccc(O)c2)CC1,0.47
4,COc1cn(-c2ccc(-n3cccn3)cc2F)nc(-c2ccnn2-c2ccccc2)c1=O,-1.11
5,C[C@@H]1N=C(N)NC(N(C)C)=N1,-2.11
6,Nc1ncnc2c1ncn2[C@@H]1O[C@H](CO)[C@@H](O)[C@@H]1O,-0.52
7,CC12CCC(=O)C=C1CCC1C2[C@@H](O)CC2(C)C1CC[C@]2(O)C(=O)COP(=O)(O)O (some centres unmarked),-4.38
8,CC(C)NC(=O)N1CC[C@H](NC2=Nc3cc(F)ccc3N(CC(F)F)c3ccc(Cl)cc32)C1,2.43
9,COCc1c[n+]([O-])c(C)cn1,2.97
10,O=c1[n-]c(=O)n(Cl)c(=O)n1Cl,-11.2
11,CCN1CCN(C(=O)NC(C(=O)N[C@@H]2C(=O)N3[C@@H]2SC(C)(C)[C@@H]3C(=O)[O-])c2ccccc2)C(=O)C1=O (some centres unmarked),-2.05
12,NC(=O)c1cc([N+](=O)[O-])cc([N+](=O)[O-])c1,-2.95
13,CC[C@H](C)[C@H](N)C(=O)O,-0.55
14,CC(=O)SC[C@@H](C)C(=O)N1CCC[C@H]1C(=O)N[C@@H](Cc1ccccc1)C(=O)O,-0.38
15,NC[C@@H]1O[C@H](C23CC4CC(CC(C4)C2)C3)Cc2c1ccc(O)c2O,-0.25
16,O=c1[nH]cnc2nc[nH]c12,-2.17
17,CCOc1nc2cccc(C(=O)O)c2n1Cc1ccc(-c2ccccc2-c2nnn[nH]2)cc1,4.44
18,O=C(O)[C@@H](S)[C@@H](S)C(=O)O,-5.93
19,C[C@@](Cc1ccc(O)c(O)c1)(NN)C(=O)O,-4.37
20,C=CC(=O)Nc1cccc(Oc2nc(Nc3ccc(N4CCN(C)CC4)cc3)ncc2Cl)c1,70.5
